Reference: paper PMC4336329 (PLoS ONE, 2015)
Hit rate of the full screen: of about 310,000 compounds, about 14,000 (4.5%) showed an effect of 50% or more. The effect is printed as a negative number. The list shows a part of the results.

These compounds were tested against human ether-à-go-go-related gene (hERG) potassium channel (human, UniProt Q12809) (assay: primary screen, population patch clamp on CHO cells stably expressing hERG).
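Further: peak tail current of the secondary pulse compared with the same well before compound.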

human ether-à-go-go-related gene (hERG) potassium channel, sequence (Q12809 whole entry, looked up): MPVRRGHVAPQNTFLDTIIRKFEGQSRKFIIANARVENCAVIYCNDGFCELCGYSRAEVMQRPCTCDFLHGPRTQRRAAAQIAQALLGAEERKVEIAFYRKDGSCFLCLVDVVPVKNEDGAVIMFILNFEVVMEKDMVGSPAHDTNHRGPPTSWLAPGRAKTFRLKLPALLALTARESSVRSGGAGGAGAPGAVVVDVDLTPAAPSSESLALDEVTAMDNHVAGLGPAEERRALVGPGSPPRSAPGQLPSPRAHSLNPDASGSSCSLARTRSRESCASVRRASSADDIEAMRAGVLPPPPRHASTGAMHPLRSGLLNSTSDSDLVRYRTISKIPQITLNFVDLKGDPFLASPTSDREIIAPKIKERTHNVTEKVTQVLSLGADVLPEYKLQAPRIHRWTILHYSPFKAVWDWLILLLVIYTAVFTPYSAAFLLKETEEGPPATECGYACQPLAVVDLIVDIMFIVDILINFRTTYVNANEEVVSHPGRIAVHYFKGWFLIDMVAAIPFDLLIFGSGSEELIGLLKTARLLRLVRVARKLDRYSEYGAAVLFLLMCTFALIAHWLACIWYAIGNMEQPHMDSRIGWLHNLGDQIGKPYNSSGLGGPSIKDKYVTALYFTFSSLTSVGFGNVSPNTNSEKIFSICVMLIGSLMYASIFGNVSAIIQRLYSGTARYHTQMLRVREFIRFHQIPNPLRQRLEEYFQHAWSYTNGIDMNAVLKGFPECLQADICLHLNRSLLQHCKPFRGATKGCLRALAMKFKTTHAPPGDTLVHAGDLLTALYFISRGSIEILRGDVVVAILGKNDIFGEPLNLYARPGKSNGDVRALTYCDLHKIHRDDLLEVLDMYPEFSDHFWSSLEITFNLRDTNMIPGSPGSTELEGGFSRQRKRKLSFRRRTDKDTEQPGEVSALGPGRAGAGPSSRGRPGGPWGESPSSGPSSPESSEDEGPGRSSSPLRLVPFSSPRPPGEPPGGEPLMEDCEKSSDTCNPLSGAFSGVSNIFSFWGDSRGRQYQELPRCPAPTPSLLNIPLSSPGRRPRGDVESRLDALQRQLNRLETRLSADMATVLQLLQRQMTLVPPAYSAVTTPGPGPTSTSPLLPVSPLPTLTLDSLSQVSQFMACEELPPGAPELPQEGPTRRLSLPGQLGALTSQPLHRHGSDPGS

SMILES	hERG current change (%, negative = inhibition) at 10uM [%]
C=C1CCC[C@]2(C)C[C@H]3OC(=O)C(CNCC(C)C)[C@H]3CC12 (stereo partly drawn)	-6.83
N#Cc1cnc(Nc2nc3ccccc3o2)nc1-c1ccccc1	-5.74
COc1cccc(CNC(=O)CCC(=O)N2C[C@H]3C[C@H](C2)c2cccc(=O)n2C3)c1OC	8.62
Cc1oc(-c2ccccc2Cl)nc1CN(Cc1ccccn1)C[C@@H]1CCC(=O)N1	-9.99
COc1ccc(NC(=O)C2CC(c3cc(OC)c(OC)c(OC)c3)=NO2)cc1OC (stereo not drawn)	-8.52
CCn1c(N)nc2c1c(=O)n(C)c(=O)n2C	10.7
CSc1nsc(SC)c1C(=O)OCC(F)(F)F	12.1
O=C(O)C1CC=CCC1C(=O)Nc1ccccc1C(=O)N1CCN(c2ccc(Cl)cc2)CC1 (stereo not drawn)	4.97
Cc1ccc(S(=O)(=O)/N=C(\N)Nc2nc(C)c3cc(C)ccc3n2)cc1	-6.12
COc1ccc(Oc2c(C(F)(F)F)oc3cc(OCC(=O)O)ccc3c2=O)cc1	22
CN(Cc1ccccc1)C(=O)COC(=O)CCN1C(=O)C2CC=CCC2C1=O (stereo not drawn)	-6.13
O=C(O)c1ccccc1C(=O)NCCc1c(C(=O)O)[nH]c2ccc(F)cc12	10.2
COc1ccc(CCNC(=O)c2cc(S(=O)(=O)N3CCOCC3)ccc2N2CCCC2)cc1OC	-2.29
CCCOc1ccc(NC(=O)C2OC3OC(C)(C)OC3C3OC(C)(C)OC23)cc1 (stereo not drawn)	14.9
CC1Cc2ccccc2N1C(=O)C1CCCN1S(=O)(=O)c1ccc(Cl)cc1 (stereo not drawn)	3.04
CCOC(=O)c1cnc(SCc2cccc(C)c2)nc1N	-21.5
O=C(c1ccc(F)cc1F)N1CCC(N2CCC(C(=O)N3CCOCC3)CC2)CC1	13.2
Cc1ccc(N(Cc2cc3ccc(C)cc3[nH]c2=O)S(=O)(=O)c2ccccc2)cc1	7.5
CCOP(=S)(OCC)Oc1cc(C)oc(=O)c1	10.9
O=C(NCC1CCCO1)c1ccc2c(c1)C(=O)N(C1CCCCC1)C2=O (stereo not drawn)	-21.2
O=C(O)c1ccc(N/N=C/c2ccnc3ccccc23)cc1	18.5
CN(C)c1ccc(C(=O)NCc2ccc3c(c2)CCO3)cc1	-4.82
CCOc1ccc(-c2c(C(=O)N/N=C/c3ccc(OC)cc3)nnn2-c2nonc2N)cc1	-3.47
CCOC(=O)C1CCN(C(=O)CNC(=O)c2nn(-c3ccc(OC)c(OC)c3)c(=O)c3ccccc23)CC1	-2.02
CCn1nc(NC(=O)c2ccncc2)c2cc3ccccc3nc21	-12
C=CCn1c(N)c(C(=O)Nc2ccc(C)cc2)sc1=S	10.7
Cc1cc(=O)n2c3ccccc3n(CC(O)CN3CCN(Cc4ccccc4)CC3)c2c1C#N (stereo not drawn)	-62.8

SMILES	hERG current change (%, negative = inhibition) at 10uM [%]
CC(C)[C@H](NC(=O)OC(C)(C)C)c1nnc(S(=O)(=O)Cc2c(F)cccc2Cl)o1	-6.28
O=C1C=C(c2ccc3c(c2)oc2ccccc23)C[C@@H](c2ccc(Cl)cc2)C1	16.3
CCOC(=O)N1CCN(CC(=O)Nc2ccc(F)c(F)c2)CC1	-62.4
O=C(COC(=O)Cc1cccc(C(F)(F)F)c1)NCc1ccco1	3.97
Cc1ccc(/C=N/NC(=O)c2ccc(N(C)S(=O)(=O)c3ccccc3)cc2)cc1	-28
O=C(O)Cn1c(O)c(C=Nc2ccccc2)sc1=S [14736554]	9.85
CN1CCN(c2ccccc2NC(=O)c2ccc(-c3ccc(Cl)c(Cl)c3)o2)CC1	-3.73
COc1ccccc1CNCc1cc(OC)c(OC)c(OC)c1.O=C(O)C(=O)O	15.2
Cc1csc(N2CCN(c3cc4c(cc3Cl)nc(-c3ccncc3)n4CCCN3CCCC3)CC2)n1	-64.8
COc1cccc(CN2CCC(n3nccc3NC(=O)CCCc3ccccc3)CC2)c1O	-75.9
CONC(=O)C1CCN(C(=O)OCc2ccccc2)CC1	17.7
CCn1c(O)c(/C=C2\C=NN=C2c2ccccc2)sc1=S	23.4
COc1ccc(C(=O)Nc2cc(OC)c(Cl)cc2OC)cc1	-15.6
CCCSc1nnc2c(n1)OC(c1cccn1C)N(C(C)=O)c1ccccc1-2 (stereo not drawn)	-24.9
CN(C)S(=O)(=O)N1CCN(c2cc(Cl)ccc2Cl)CC1	-8.38
O=C(Nc1ccccc1C(=O)N1CCOCC1)C1CCCO1 (stereo not drawn)	7.15
Cc1csc(N2CCCC2c2nc3cc(Cl)c(N4CCCCC4)cc3n2CCOCCO)n1 (stereo not drawn)	-47.3
O=c1c2oc3ccccc3c2ncn1Cc1ccccc1Cl	15.1
CCOC(=O)C1CCN(C(=O)CCNC(=O)Cn2cnc3ccccc3c2=O)CC1	10.7
COc1ccc(C2C(C(=O)N3CC(C)CC(C)C3)c3ccccc3C(=O)N2C)cc1 (stereo not drawn)	9.43
CCSc1nnc(-c2ccc(OC)cc2)o1	3.35
CC(=O)c1c(C)[nH]c(C(=O)NCc2ccco2)c1C	-3.14
Cc1ccc(CNC(=O)CCN2C(=O)[C@@H]3Cc4ccccc4CN3C2=O)cc1	-40.5
O=C1CSC(c2cccc(F)c2)N1c1ccc(O)cc1 (stereo not drawn)	14.9
CC(C)C[C@H](NC(=O)N1CC(=O)Nc2ccccc21)C(=O)N[C@@H](Cc1c[nH]c2ccccc12)C(=O)O	15.1
Cc1csc2ncc(C(=O)N(Cc3ccccc3)c3ccccn3)c(=O)n12	7.61
Cc1ccc(S(=O)(=O)N2CCC(C(=O)Nc3ccccc3N3CCCC3)CC2)cc1	-10.6
